# Measured values: PubChem BioAssay AID2100 (National Center for Advancing Translational Sciences (NCATS), 2009)
# The whole screen tested about 300,000 compounds, of which about 1,200 (0.4%) were called active. Inconclusive means that the source gave no clear call. Such entries were picked first, then a sample of the others. The call rests on the fitted dose curve; in most records, active means well fitted inhibition curve with a large enough effect; inconclusive means small, poorly fitted or top-dose-only effect, or another doubt; inactive means no such curve, though single readings can be large or run the other way. Where the call is inconclusive, the potency comes from a doubtful curve fit.
# Biological target: Lysosomal alpha-glucosidase (Homo sapiens) (UniProt P10253)
# Assay: qHTS Assay for Inhibitors and Activators of Human alpha-Glucosidase Cleavage of Glycogen
# Details: recombinant GAA, glycogen substrate, Amplex Red glucose oxidase fluorescence; series mostly up to 76.4 µM
# Summary of the method: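 Recombinant human enzyme (4 nM); glycogen substrate; 37 C, 40 min, pH 5.0. Readout: coupled glucose oxidase/Amplex Red fluorescence.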
# Potency means the concentration at half of the fitted maximal effect.
row,SMILES,Potency
1,Oc1ccc2ccccc2c1C=NC1CCCCC1,inactive
2,NNC(=O)c1nc[nH]c1C(=O)Nc1ccccc1[N+](=O)[O-],"inconclusive: 20 µM [inhibitor, partial curve]"
3,COCCCNC(=S)N/N=C/c1ccc(N(C)C)cc1,"inconclusive: 17.8 µM [inhibitor, partial curve]"
4,Cc1c(N)cc(N)cc1C(=O)O,inactive
5,Cc1cc(C)c2c3c(sc2n1)C(c1ccccc1)C(C#N)=C(N)O3 (stereo unspecified),"inconclusive: 25.1 µM [activator, partial curve]"
6,O=C(NCC(c1cccnc1)N1CCc2ccccc2C1)C(=O)Nc1cccc(Cl)c1 (stereo unspecified),"inconclusive: 7.08 µM [inhibitor, partial curve]"
7,CCC(C)c1ccc(S(=O)(=O)N2CCN(C(=O)COc3ccc4c(C)cc(=O)oc4c3)CC2)cc1 (stereo unspecified),inactive
8,O=c1[nH]c2ccc(S(=O)(=O)Nc3cc(Cl)ccc3O)cc2o1,"inconclusive: 7.94 µM [inhibitor, full curve]"
9,COc1ccc(C2=NN(c3ccccc3)C(=O)/C2=C\c2ccc(O)c(OC)c2)cc1,"inconclusive: 31.6 µM [inhibitor, single point]"
10,Cc1ccn2c(-c3csc(NCc4ccccc4)n3)c(C)nc2c1,"inconclusive: 39.5 µM [inhibitor, single point]"
11,COc1cc(/C=C2/C(=O)N(c3ccc([N+](=O)[O-])cc3)N=C2N2CCOCC2)ccc1O,"inconclusive: 28.2 µM [inhibitor, partial curve]"
12,O=c1oc2ccc(NS(=O)(=O)c3cccc4cccnc34)cc2s1,"inconclusive: 31.6 µM [inhibitor, single point]"
13,Cc1c(NC(=O)c2ccc(-c3ccc(F)cc3)o2)cccc1-c1nc2ncccc2o1,inactive
14,COc1ccc(Cl)cc1NC(=O)c1cc2nc(-c3ccc(C)cc3)cc(C(F)(F)F)n2n1,inactive
15,Cc1cc(CNC(=O)c2ccc3c(c2)OCO3)c2ccccc2n1,"inconclusive: 50.1 µM [inhibitor, single point]"
16,Cc1cccc(Cn2c(C)c(C)c3cc(C(=O)NCCN4CCOCC4)ccc32)c1,inactive
17,CC(c1ccc(F)cc1)n1c(-c2cccs2)n[nH]c1=S (stereo unspecified),"inconclusive: 31.6 µM [inhibitor, single point]"
18,Cc1ccc([N+](=O)[O-])cc1N/C=C/C(=O)c1ccco1,inactive
19,O=C(NNS(=O)(=O)c1ccccc1C(F)(F)F)c1cc2ncc(C(F)(F)F)cc2s1,active: 28.2 µM
20,COc1cccc(/C=N/Nc2nnc(C)n2N)c1OCc1ccccc1Cl,"inconclusive: 3.98 µM [inhibitor, full curve]"
21,Cc1ccccc1NC(=O)NCc1ccco1,"inconclusive: 39.8 µM [activator, partial curve]"
22,COc1ccc(CNC(=S)N/N=C(\C)c2ccc(OC)cc2)cc1,"inconclusive: 50.1 µM [inhibitor, single point]"
23,Cc1nc(NC(=S)Nc2ccccc2)sc1C,"inconclusive: 11.1 µM [inhibitor, partial curve]"
24,N#Cc1c(NC(=O)c2cccnc2)sc2c1CCC2,"inconclusive: 12.6 µM [inhibitor, partial curve]"

row,SMILES,Potency
1,COc1ccc(C(c2oc(CO)cc(=O)c2O)c2oc(CO)cc(=O)c2O)cc1OC,"inconclusive: 12.6 µM [inhibitor, partial curve]"
2,COc1cccc(-c2cn3c(n2)sc2cc(C(=O)NCCc4ccccc4)ccc23)c1,inactive
3,Cc1cc(C)c(C)c(S(=O)(=O)N2CCN(c3ccc(O)cc3)CC2)c1C,"inconclusive: 7.94 µM [inhibitor, full curve]"
4,CN1CCc2c(sc(N)c2C(N)=O)C1,inactive
5,CC(=O)Oc1ccc(C2C3=C(CC(C)(C)CC3=O)Nc3cc4c(cc32)OCCO4)cc1 (stereo unspecified),"inconclusive: 5.62 µM [inhibitor, single point]"
6,Cc1cc(O)c(/C=N/Nc2ccccc2Cl)c(=O)o1,active: 25.1 µM
7,Cc1ccc(-c2cn3c(n2)sc2cc(C(=O)NC4CCCCC4)ccc23)cc1,inactive
8,N#C/C(=N\Nc1ccc(S(=O)(=O)N2CCc3ccccc32)cc1)C(N)=S,"inconclusive: 11.2 µM [inhibitor, full curve, poor fit]"
9,COc1ccc(-c2nc3n(n2)C(c2cccc(C)c2)C(C(N)=O)=C(C)N3)cc1OC (stereo unspecified),"inconclusive: 14.1 µM [inhibitor, partial curve]"
10,CCC(=O)Nc1c2c(nc3c1CCC3)CCCC2,"inconclusive: 5.62 µM [inhibitor, full curve, poor fit]"
11,CC(=O)C1=C(O)C(=O)N(CCCCCC(=O)O)C1c1ccc(N(C)C)cc1 (stereo unspecified),"inconclusive: 35.5 µM [inhibitor, partial curve]"
12,Nc1cc(C(F)(F)F)ccc1Nc1ccccc1,"inconclusive: 25.1 µM [inhibitor, partial curve]"
13,Cc1ccc2c(=O)cc(C(F)F)oc2c1,"inconclusive: 11.2 µM [inhibitor, single point]"
14,CCOC(=O)c1[nH]c(C)c(C(=O)NCCc2ccccc2)c1C,inactive
15,N#Cc1c(/N=C/C=C/c2ccccc2)sc2c1CCCC2,active: 12.5 µM
16,Fc1ccc(CSc2ncnc3ccccc23)cc1,inactive
17,C/C(=N\NC(=O)Cc1c(C)[nH][nH]c1=O)c1cccc(Br)c1,"inconclusive: 11.2 µM [inhibitor, partial curve]"
18,CC(C)CCn1c(=O)c2sccc2n2c(CCCC(=O)Nc3ccc(F)c(Cl)c3)nnc12,inactive
19,CC1(C)CC(=O)c2cc(C(=O)NNc3ccccc3)c(=O)n(-c3ccccc3)c2C1,"inconclusive: 3.55 µM [inhibitor, full curve]"
20,C/C(=N\Nc1nc(C)cc(=O)[nH]1)C1CC1,"inconclusive: 39.8 µM [inhibitor, single point]"
21,Cc1nc2ccccn2c1C(=O)NNS(=O)(=O)c1ccc(Cl)cc1,"inconclusive: 22.4 µM [inhibitor, partial curve]"
22,CCOC(=O)C1=C(CN(C)Cc2ccccc2)NC(=O)NC1c1ccc(OC(C)C)cc1 (stereo unspecified),inactive
23,COc1cccc(-n2c(SCc3cc(=O)oc4cc(O)c(O)cc34)nc3ccccc3c2=O)c1,"inconclusive: 39.5 µM [inhibitor, single point]"
24,CC1COC(=O)C(NNc2ccc(Cl)c(Cl)c2)=N1 (stereo unspecified),"inconclusive: 3.14 µM [inhibitor, partial curve]"

row,SMILES,Potency
1,CCC1CCCCN1CCCNC(=O)CNC(=O)c1nn(-c2ccc(OC)cc2)c(=O)c2ccccc12 (stereo unspecified),"inconclusive: 11.2 µM [inhibitor, single point]"
2,CC(C)(C)c1cc(CN2CCC(O)CC2)cc(C(C)(C)C)c1O,"inconclusive: 25.1 µM [inhibitor, partial curve]"
3,Cc1[nH]c2ccccc2c1/C=N/NC(=S)NC(C)C,active: 7.94 µM
4,COc1ccc(Cl)cc1NC(=S)NNC(=O)c1cccnc1,"inconclusive: 39.8 µM [inhibitor, single point]"
5,S=C(NCc1ccco1)Nc1ccc(N2CCOCC2)cc1,"inconclusive: 28 µM [inhibitor, partial curve]"
6,Nc1ccc(N2CCN(C(=O)c3ccco3)CC2)cc1,"inconclusive: 20 µM [inhibitor, partial curve]"
7,CC1CCC(C(C)C)C(OC(=O)COC(=O)c2cc(O)ccc2N)C1 (stereo unspecified),"inconclusive: 10 µM [inhibitor, partial curve]"
8,COc1ccc(/C=N/Nc2nc(C(=O)O)cs2)cc1,"inconclusive: 7.08 µM [inhibitor, single point]"
9,CCOC(=O)C1=C(C)NC(C)=C(C(=O)OCC)C1c1sccc1C,"inconclusive: 31.6 µM [inhibitor, partial curve]"
10,O=C(CN1CCOCC1)Nc1ccccc1,inactive
11,C/C(CCc1ccc2c(c1)OCO2)=N\N=C(/N)SC1CC(=O)N(c2ccccc2F)C1=O (stereo unspecified),"inconclusive: 17.8 µM [inhibitor, partial curve]"
12,COc1ccc(C2C(C#N)=C(N)Oc3c2c(-c2ccccc2)nn3-c2ccccc2)c(OC)c1OC (stereo unspecified),"inconclusive: 50.1 µM [inhibitor, single point]"
13,Cn1c(=O)c2c(nc3n2CC(O)CN3c2ccc(O)cc2)n(C)c1=O (stereo unspecified),"inconclusive: 20 µM [inhibitor, partial curve]"
14,CCOC(=O)N1CCN(c2ccc(O)cc2)CC1,active: 25.1 µM
15,COc1ccc(Nc2nc(C)c(-c3ccccc3)s2)cc1,active: 14 µM
16,Brc1ccc2nc(CSc3ncn[nH]3)cn2c1,inactive
17,Cc1ccn2c(Nc3ccc(C(C)C)cc3)c(-c3cccnc3)nc2c1,active: 15.8 µM
18,CCC1(CC)Cc2ccccc2-c2nc(NN)[nH]c(=O)c21,"inconclusive: 28.2 µM [inhibitor, single point]"
19,Cc1cc(C)c(C2C3=C(Nc4c2c(C)nn4-c2ccccn2)c2ccccc2C3=O)c(C)c1 (stereo unspecified),"inconclusive: 50.1 µM [activator, single point]"
20,CCC(OC(=O)c1ccco1)C(=O)NCc1ccco1 (stereo unspecified),"inconclusive: 50.1 µM [inhibitor, partial curve, poor fit]"
21,CN(C)N1C(N)=C(C#N)C(c2ccc(Cl)cc2)C2=C1CCCC2=O (stereo unspecified),"inconclusive: 25.1 µM [inhibitor, partial curve]"
22,Cc1nn(-c2ccccc2)c2c1C(c1ccc(Br)s1)C(C#N)=C(N)O2 (stereo unspecified),"inconclusive: 31.4 µM [inhibitor, single point]"
23,O=C(O)CC(CCc1ccccc1)OC1OC(CO)C(O)C(O)C1O (stereo unspecified),"inconclusive: 39.8 µM [inhibitor, single point]"
